In the supplement of paper PMC8728848:
The other results are listed elsewhere or left out.

Key:
Assay in all cases: glycan array binding signal (z-score within array); higher = stronger binding
Details in all cases: glycan notation: IUPAC condensed, linker removed
[1] = target: GlcNAc(b1-2)Gal(b1-3)GalNAc
In short: (§1)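 The binding signal is a Z-score computed within each array and averaged over linkers. Arrays of the same protein sequence at different concentrations or buffers were also averaged together. Data originate from 3228 arrays in the Consortium for Functional Glycomics database, kept only where the protein sequence was available.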

[2] = target: GlcNAc(b1-2)Man(a1-3)[GlcNAc(b1-2)Man(a1-6)]Man(b1-4)GlcNAc(b1-4)GlcNAc
In short: as §1

[3] = target: GlcNAc(b1-2)Man(a1-3)[GlcNAc(b1-2)Man(a1-6)]Man(b1-4)GlcNAc(b1-4)[Fuc(a1-6)]GlcNAc
In short: as §1

[4] = target: GlcNAc(b1-2)Man(a1-3)[GlcNAc(b1-4)][GlcNAc(b1-2)Man(a1-6)]Man(b1-4)GlcNAc(b1-4)GlcNAc
In short: as §1

[5] = target: GlcNAc(b1-2)Man(a1-3)[GlcNAc(b1-4)][GlcNAc(b1-2)Man(a1-6)]Man(b1-4)GlcNAc(b1-4)[Fuc(a1-6)]GlcNAc
In short: as §1

[6] = target: GlcNAc(b1-2)[GlcNAc(b1-4)]Man(a1-3)[GlcNAc(b1-2)Man(a1-6)]Man(b1-4)GlcNAc(b1-4)GlcNAc
In short: as §1

[7] = target: GlcNAc(b1-2)[GlcNAc(b1-4)]Man(a1-3)[GlcNAc(b1-4)][GlcNAc(b1-2)Man(a1-6)]Man(b1-4)GlcNAc(b1-4)GlcNAc
In short: as §1

[8] = target: GlcNAc(b1-2)[GlcNAc(b1-4)]Man(a1-3)[GlcNAc(b1-4)][GlcNAc(b1-2)[GlcNAc(b1-6)]Man(a1-6)]Man(b1-4)GlcNAc(b1-4)GlcNAc
In short: as §1

[9] = target: GlcNAc(b1-2)[GlcNAc(b1-4)]Man(a1-3)[GlcNAc(b1-4)][GlcNAc(b1-2)[GlcNAc(b1-6)]Man(a1-6)]Man(b1-4)GlcNAc(b1-4)[Fuc(a1-6)]GlcNAc
In short: as §1

[10] = target: GlcNAc(b1-2)[GlcNAc(b1-6)]Man(a1-6)[GlcNAc(b1-2)Man(a1-3)]Man(b1-4)GlcNAc(b1-4)GlcNAc
In short: as §1

[11] = target: GlcNAc(b1-2)[GlcNAc(b1-6)]Man(a1-6)[GlcNAc(b1-2)Man(a1-3)]Man(b1-4)GlcNAc(b1-4)[Fuc(a1-6)]GlcNAc
In short: as §1

[12] = target: GlcNAc(b1-2)[GlcNAc(b1-6)]Man(a1-6)[GlcNAc(b1-4)][GlcNAc(b1-2)Man(a1-3)]Man(b1-4)GlcNAc(b1-4)GlcNAc
In short: as §1

GlcNAc(b1-3)Fuc = target: GlcNAc(b1-3)Fuc
In short: as §1

GlcNAc(b1-3)Gal = target: GlcNAc(b1-3)Gal
In short: as §1

[13] = target: GlcNAc(b1-3)Gal(b1-3)GalNAc
In short: as §1

GlcNAc(b1-3)Gal(b1-4)Glc = target: GlcNAc(b1-3)Gal(b1-4)Glc
In short: as §1

[14] = target: GlcNAc(b1-3)Gal(b1-4)GlcNAc
In short: as §1

[15] = target: GlcNAc(b1-3)Gal(b1-4)GlcNAc(b1-2)Man(a1-3)[GlcNAc(b1-3)Gal(b1-4)GlcNAc(b1-2)Man(a1-6)]Man(b1-4)GlcNAc(b1-4)GlcNAc
In short: as §1

[16] = target: GlcNAc(b1-3)Gal(b1-4)GlcNAc(b1-2)Man(a1-3)[GlcNAc(b1-3)Gal(b1-4)GlcNAc(b1-2)Man(a1-6)]Man(b1-4)GlcNAc(b1-4)[Fuc(a1-6)]GlcNAc
In short: as §1

[17] = target: GlcNAc(b1-3)Gal(b1-4)GlcNAc(b1-2)[GlcNAc(b1-3)Gal(b1-4)GlcNAc(b1-6)]Man(a1-6)[GlcNAc(b1-3)Gal(b1-4)GlcNAc(b1-2)Man(a1-3)]Man(b1-4)GlcNAc(b1-4)GlcNAc
In short: as §1

[18] = target: GlcNAc(b1-3)Gal(b1-4)GlcNAc(b1-3)Gal(b1-4)GlcNAc
In short: as §1

[19] = target: GlcNAc(b1-3)Gal(b1-4)GlcNAc(b1-3)Gal(b1-4)GlcNAc(b1-2)Man(a1-3)[GlcNAc(b1-3)Gal(b1-4)GlcNAc(b1-3)Gal(b1-4)GlcNAc(b1-2)Man(a1-6)]Man(b1-4)GlcNAc(b1-4)GlcNAc
In short: as §1

[20] = target: GlcNAc(b1-3)Gal(b1-4)GlcNAc(b1-3)Gal(b1-4)GlcNAc(b1-2)Man(a1-3)[GlcNAc(b1-3)Gal(b1-4)GlcNAc(b1-3)Gal(b1-4)GlcNAc(b1-2)Man(a1-6)]Man(b1-4)GlcNAc(b1-4)[Fuc(a1-6)]GlcNAc
In short: as §1

[21] = target: GlcNAc(b1-3)Gal(b1-4)GlcNAc(b1-3)Gal(b1-4)GlcNAc(b1-2)[GlcNAc(b1-3)Gal(b1-4)GlcNAc(b1-3)Gal(b1-4)GlcNAc(b1-6)]Man(a1-6)[GlcNAc(b1-3)Gal(b1-4)GlcNAc(b1-3)Gal(b1-4)GlcNAc(b1-2)Man(a1-3)]Man(b1-4)GlcNAc(b1-4)[Fuc(a1-6)]GlcNAc
In short: as §1

[22] = target: GlcNAc(b1-3)Gal(b1-4)GlcNAc(b1-3)Gal(b1-4)GlcNAc(b1-3)Gal(b1-4)GlcNAc(b1-2)Man(a1-3)[GlcNAc(b1-3)Gal(b1-4)GlcNAc(b1-3)Gal(b1-4)GlcNAc(b1-3)Gal(b1-4)GlcNAc(b1-2)Man(a1-6)]Man(b1-4)GlcNAc(b1-4)GlcNAc
In short: as §1

[23] = target: GlcNAc(b1-3)Gal(b1-4)GlcNAc(b1-3)Gal(b1-4)GlcNAc(b1-3)Gal(b1-4)GlcNAc(b1-2)Man(a1-3)[GlcNAc(b1-3)Gal(b1-4)GlcNAc(b1-3)Gal(b1-4)GlcNAc(b1-3)Gal(b1-4)GlcNAc(b1-2)Man(a1-6)]Man(b1-4)GlcNAc(b1-4)[Fuc(a1-6)]GlcNAc
In short: as §1

[24] = target: GlcNAc(b1-3)Gal(b1-4)GlcNAc(b1-3)Gal(b1-4)GlcNAc(b1-3)Gal(b1-4)GlcNAc(b1-2)[GlcNAc(b1-3)Gal(b1-4)GlcNAc(b1-3)Gal(b1-4)GlcNAc(b1-3)Gal(b1-4)GlcNAc(b1-6)]Man(a1-6)[GlcNAc(b1-3)Gal(b1-4)GlcNAc(b1-3)Gal(b1-4)GlcNAc(b1-3)Gal(b1-4)GlcNAc(b1-2)Man(a1-3)]Man(b1-4)GlcNAc(b1-4)[Fuc(a1-6)]GlcNAc
In short: as §1

[25] = target: GlcNAc(b1-3)Gal(b1-4)GlcNAc(b1-3)Gal(b1-4)GlcNAc(b1-3)Gal(b1-4)GlcNAc(b1-3)Gal(b1-4)GlcNAc(b1-2)Man(a1-3)[GlcNAc(b1-3)Gal(b1-4)GlcNAc(b1-3)Gal(b1-4)GlcNAc(b1-3)Gal(b1-4)GlcNAc(b1-3)Gal(b1-4)GlcNAc(b1-2)Man(a1-6)]Man(b1-4)GlcNAc(b1-4)GlcNAc
In short: as §1

[26] = target: GlcNAc(b1-3)Gal(b1-4)GlcNAc(b1-3)Gal(b1-4)GlcNAc(b1-3)Gal(b1-4)GlcNAc(b1-3)Gal(b1-4)GlcNAc(b1-2)Man(a1-3)[GlcNAc(b1-3)Gal(b1-4)GlcNAc(b1-3)Gal(b1-4)GlcNAc(b1-3)Gal(b1-4)GlcNAc(b1-3)Gal(b1-4)GlcNAc(b1-2)Man(a1-6)]Man(b1-4)GlcNAc(b1-4)[Fuc(a1-6)]GlcNAc
In short: as §1

[27] = target: GlcNAc(b1-3)Gal(b1-4)GlcNAc(b1-3)Gal(b1-4)GlcNAc(b1-3)Gal(b1-4)GlcNAc(b1-3)Gal(b1-4)GlcNAc(b1-2)[GlcNAc(b1-3)Gal(b1-4)GlcNAc(b1-3)Gal(b1-4)GlcNAc(b1-3)Gal(b1-4)GlcNAc(b1-3)Gal(b1-4)GlcNAc(b1-6)]Man(a1-6)[GlcNAc(b1-3)Gal(b1-4)GlcNAc(b1-3)Gal(b1-4)GlcNAc(b1-3)Gal(b1-4)GlcNAc(b1-3)Gal(b1-4)GlcNAc(b1-2)Man(a1-3)]Man(b1-4)GlcNAc(b1-4)[Fuc(a1-6)]GlcNAc
In short: as §1

B1: Pa IMPa (Pseudomonas aeruginosa), Q9I5W4 (protein)
chain: MSLSTTAFPSLQGENMSRSPIPRHRALLAGFCLAGALSAQAATQEEILDAALVSGDSSQLTDSHLVALRLQQQVERIRQTRTQLLDGLYQNLSQAYDPGAASMWVLPANPDNTLPFLIGDKGRVLASLSLEAGGRGLAYGTNVLTQLSGTNAAHAPLLKRAVQWLVNGDPGAATAKDFKVSVVGVDKTAALNGLKSAGLQPADAACNALTDASCASTSKLLVLGNGASAASLSATVRARLQAGLPILFVHTNGWNQSSTGQQILAGLGLQEGPYGGNYWDKDRVPSSRTRTRSVELGGAYGQDPALVQQIVDGSWRTDYDWSKCTSYVGRTTCDDVPGLSDFSKRVDVLKGALDAYNQKAQNLFALPGTTSLRLWLLWADAVRQNIRYPMDKAADTARFQETFVADAIVGYVREAGAAQKELGSYAGQRQQSMPVSGSEETLTLTLPSAQGFTAIGRMAAPGKRLSIRIEDAGQASLAVGLNTQRIGSTRLWNTRQYDRPRFLKSPDIKLQANQSVALVSPYGGLLQLVYSGATPGQTVTVKVTGAASQPFLDIQPGEDSSQAIADFIQALDADKADWLEIRSGSVEVHAKVEKVRGSIDKDYGGDVQRFIRELNEVFIDDAYTLAGFAIPNQAKTPAIQQECAARGWDCDSETLHKLPGTQHINVDQYAQCGGGCSGNPYDQTWGLNPRGWGESHELGHNLQVNRLKVYGGRSGEISNQIFPLHKDWRVLREFGQNLDDTRVNYRNAYNLIVAGRAEADPLAGVYKRLWEDPGTYALNGERMAFYTQWVHYWADLKNDPLQGWDIWTLLYLHQRQVDKSDWDANKAALGYGTYAQRPGNSGDASSTDGNDNLLLGLSWLTQRDQRPTFALWGIRTSAAAQAQVAAYGFAEQPAFFYANNRTNEYSTVKLLDMSQGSPAWPFP
glycan array binding signal (z-score) [1]: -0.639
glycan array binding signal (z-score) [2]: 0.017
glycan array binding signal (z-score) [3]: 0.384
glycan array binding signal (z-score) [4]: 0.309
glycan array binding signal (z-score) [5]: 0.448
glycan array binding signal (z-score) [6]: 0.309
glycan array binding signal (z-score) [7]: 0.103
glycan array binding signal (z-score) [8]: -0.126
glycan array binding signal (z-score) [9]: 1.41
glycan array binding signal (z-score) [10]: 0.261
glycan array binding signal (z-score) [11]: -0.04
glycan array binding signal (z-score) [12]: -0.318
glycan array binding signal (z-score) (GlcNAc(b1-3)Fuc): 1.37
glycan array binding signal (z-score) (GlcNAc(b1-3)Gal): -0.457
glycan array binding signal (z-score) [13]: -0.376
glycan array binding signal (z-score) (GlcNAc(b1-3)Gal(b1-4)Glc): -0.08
glycan array binding signal (z-score) [14]: -0.489
glycan array binding signal (z-score) [15]: -0.372
glycan array binding signal (z-score) [16]: 0.045
glycan array binding signal (z-score) [17]: 0.568
glycan array binding signal (z-score) [18]: -0.315
glycan array binding signal (z-score) [19]: -0.305
glycan array binding signal (z-score) [20]: -0.061
glycan array binding signal (z-score) [21]: 0.607
glycan array binding signal (z-score) [22]: -0.522
glycan array binding signal (z-score) [23]: -0.177
glycan array binding signal (z-score) [24]: -0.116
glycan array binding signal (z-score) [25]: -0.526
glycan array binding signal (z-score) [26]: 7.78
glycan array binding signal (z-score) [27]: 0.125
